Experimental data: PubChem BioAssay AID1030 (National Center for Advancing Translational Sciences (NCATS), 2008)
The campaign covered roughly 220,000 compounds. About 16,000 (7.3%) were called active. Inconclusive means that the source gave no clear call. Such entries were picked first, then a sample of the others. Calls come from the whole dose curve; as a rule, active = well fitted inhibition curve with a large enough effect (not every such curve was filed as active); inconclusive = small, poorly fitted or top-dose-only effect, or another doubt; inactive = no such curve, though single readings can be large or run the other way. No potency is given beside an inconclusive call; the fits are too rough.
Potency is the fitted concentration of half-maximal effect; tags give direction and shape of the fitted curve.
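Throughout, for activity, negative = inhibition: plate controls were no enzyme wells and a reference inhibitor.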

Each compound was assayed against Aldehyde dehydrogenase 1A1 (Homo sapiens) (UniProt P00352) (assay: qHTS Assay for Inhibitors of Aldehyde Dehydrogenase 1 (ALDH1A1)). Settings: Purified ALDH1A1, NADH fluorescence, propionaldehyde substrate; series mostly up to 75.3 µM; activity, negative = inhibition: at the top concentration.
Chain of UniProt P00352 (P00352 whole entry, looked up): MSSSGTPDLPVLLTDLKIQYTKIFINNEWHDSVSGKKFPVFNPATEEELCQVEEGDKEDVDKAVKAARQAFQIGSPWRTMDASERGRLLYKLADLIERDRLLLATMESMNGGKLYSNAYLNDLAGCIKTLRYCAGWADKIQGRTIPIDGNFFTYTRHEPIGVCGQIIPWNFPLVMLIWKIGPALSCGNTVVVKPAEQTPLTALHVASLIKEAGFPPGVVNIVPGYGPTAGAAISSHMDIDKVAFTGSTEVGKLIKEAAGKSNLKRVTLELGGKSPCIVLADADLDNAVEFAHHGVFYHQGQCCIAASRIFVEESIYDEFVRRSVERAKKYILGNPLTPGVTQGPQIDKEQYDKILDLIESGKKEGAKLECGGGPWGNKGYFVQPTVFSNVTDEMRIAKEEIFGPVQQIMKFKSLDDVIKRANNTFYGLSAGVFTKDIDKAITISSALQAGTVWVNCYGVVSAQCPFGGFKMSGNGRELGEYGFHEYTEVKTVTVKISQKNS
With `COc1ccccc1NC(=O)Cn1cnc2c(cnn2-c2ccccc2)c1=O` the “activity, negative = inhibition” value was inactive: -5.29%.
In the case of `COc1ccc(NC2SC(=O)N(CC(=O)O)C2=O)cc1` (configuration not stated), the Potency is reported as inconclusive [inhibitor, single point].
`CCCCC[n+]1ccn(C2=C([O-])c3ccccc3C(=O)/C2=N\S(=O)(=O)c2ccccc2)c1` was tested, and the Potency was active: 5.01 µM.
In the case of `COC(=O)c1ccc(/C=N/NC(=O)CC(=O)NC(C)C)cc1`, the “activity, negative = inhibition” value is reported as inactive: -8.35%.
For `C/C(=N\NC(=O)CSc1nc2ccccc2o1)c1ccc(O)cc1`, the Potency was active: 23.8 µM.
With `O=C(CSc1ccccc1C(=O)O)c1ccc([N+](=O)[O-])cc1` the Potency was active: 15.8 µM.
For `Cc1[nH][nH]c(=O)c1C(c1c(C)[nH][nH]c1=O)c1cn(Cc2ccc(Cl)c(Cl)c2)c2ccccc12`, the Potency was active: 3.55 µM.
For `Cc1cc(S(=O)(=O)N2CCCC2)c(C)s1`, the Potency was active: 7.94 µM.
`Nc1nc2ccc(C(=O)Nc3ccccc3)cc2s1` was tested, and the Potency was inconclusive [inhibitor, single point].
`CCCCn1c(SCC(=O)N2CC(=O)Nc3ccccc32)nnc1-c1ccoc1C` was tested, and the Potency was inconclusive [inhibitor, single point].
For `CCN(CC)C(=O)Cn1c(=O)n(CCCC(=O)NCc2ccccc2)c(=O)c2sccc21`, the “activity, negative = inhibition” value was inactive: 6.76%.
In the case of `Cc1ccc(/C=N/N2C(=O)C3C(C2=O)C2C=CC3C23CC3)o1` (configuration not stated), the Potency is reported as inconclusive [inhibitor, single point].
For `Cc1cc(C)nc(SCCN(C)C)n1`, the “activity, negative = inhibition” value was inactive: 4.81%.
`COc1ccc(NC(=O)CCN2C(=O)c3ccccc3S2(=O)=O)c(OC)c1` was tested, and the Potency was inconclusive [inhibitor, single point].
In the case of `O=C(N/N=C/c1ccc(Br)s1)c1ccccc1[N+](=O)[O-]`, the “activity, negative = inhibition” value is reported as inactive: -1.86%.
`Cc1cc(C)n2cc(CSc3nnc(SCc4cn5c(C)cc(C)nc5n4)s3)nc2n1` was tested, and the Potency was inconclusive [inhibitor, single point].
`COc1ccc(C2NC(=O)NC3=C2CCc2ccccc23)cc1` (configuration not stated) was tested, and the Potency was inconclusive [inhibitor, partial curve].
In the case of `N#CCSc1nnc(Nc2ccccc2)s1`, the Potency is reported as inconclusive [inhibitor, single point].
`Cc1nn(Cc2ccccc2)c(C)c1NC(=O)c1cc(-c2ccco2)on1` was tested, and the Potency was inconclusive [inhibitor, single point].
With `CCCCNCc1cc(OC)c(OCC(N)=O)cc1Br` the “activity, negative = inhibition” value was inactive: 2.74%.
In the case of `CCOCC(=O)Nc1c(C(=O)Nc2ccc3c(c2)OCCO3)oc2ccccc12`, the Potency is reported as inconclusive [inhibitor, partial curve].
With `C=CCOC(=O)C(C(C)=O)C(NC(=O)OC)c1cccc(C)c1` (configuration not stated) the activity, negative = inhibition was inactive: 7.7% [at 13.5 µM].
